# Reference: the supplement of paper PMC8728848
# Some of the results follow.
# B1: Surfactant Protein D (Human); Neck + Carbohydrate Recognition Domain (NCRD) (Homo sapiens) (protein)
# chain: MLLFLLSALVLLTQPLGYLEAEMKTYSHRTMPSACTLVMCSSVESGLPGRDRDGREGPRGEKGDPGLPGAAGQAGMPGQAGPVGPKGDNGSVGEPGPKGDTGPSGPPGPPGVPGPAGREGALGKQGNIGPQGKPGPKGEAGPKGEVGAPGMQGSAGARGLAGPKGERGVPGERGVPGNTGAAGSAGAMGPQGSPGARGPPGLKGDKGIPGDKGAKGESGLPDVASLRQQVEALQGQVQHLQAAFSQYKKVELFPNGQSVGEKIFKTAQFVKPFTEAQLLCTQAGGQLASPRSAAENAALQQLVVAKNEAAFLSMTDSKTEGKFTYPTGESLVYSNWAPGEPNDDGGSEDCVEIFTNGKWNDVACGEKRLVVCEF
# Tests used:
# Assay in all cases: glycan array binding signal (z-score within array); higher = stronger binding
# Conditions in all cases: glycan notation: IUPAC condensed, linker removed; mutation: R343V
# Fuc(a1-2)Gal = target: Fuc(a1-2)Gal
# Outline: (§1)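 Glycan array data were curated from 3228 arrays in the Consortium for Functional Glycomics database and kept only where the protein sequence was available. Glycan names were converted to IUPAC-condensed notation, and columns mapping to the same glycan were averaged. The binding signal is a within-array Z-score, averaged across arrays of the same protein sequence at different concentrations or buffers and across linkers. Negative Z-scores can be read as non-binding.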
# Fuc(a1-2)Gal(b1-3)GalNAc = target: Fuc(a1-2)Gal(b1-3)GalNAc
# Outline: as §1
# [1] = target: Fuc(a1-2)Gal(b1-3)GalNAc(b1-3)Gal
# Outline: as §1
# [2] = target: Fuc(a1-2)Gal(b1-3)GalNAc(b1-3)Gal(a1-4)Gal(b1-4)Glc
# Outline: as §1
# [3] = target: Fuc(a1-2)Gal(b1-3)GalNAc(b1-4)[Neu5Ac(a2-3)]Gal(b1-4)Glc
# Outline: as §1
# Fuc(a1-2)Gal(b1-3)GlcNAc = target: Fuc(a1-2)Gal(b1-3)GlcNAc
# Outline: as §1
# [4] = target: Fuc(a1-2)Gal(b1-3)GlcNAc(b1-3)Gal(b1-4)Glc
# Outline: as §1
# [5] = target: Fuc(a1-2)Gal(b1-3)[Fuc(a1-4)]GlcNAc
# Outline: as §1
# Fuc(a1-2)Gal(b1-4)Glc = target: Fuc(a1-2)Gal(b1-4)Glc
# Outline: as §1
# Fuc(a1-2)Gal(b1-4)Glc6S = target: Fuc(a1-2)Gal(b1-4)Glc6S
# Outline: as §1
# Fuc(a1-2)Gal(b1-4)GlcNAc = target: Fuc(a1-2)Gal(b1-4)GlcNAc
# Outline: as §1
# [6] = target: Fuc(a1-2)Gal(b1-4)GlcNAc(b1-3)Gal(b1-4)GlcNAc
# Outline: as §1
# [7] = target: Fuc(a1-2)Gal(b1-4)GlcNAc(b1-3)Gal(b1-4)GlcNAc(b1-3)Gal(b1-4)GlcNAc
# Outline: as §1
# [8] = target: Fuc(a1-2)Gal(b1-4)GlcNAc6S
# Outline: as §1
# [9] = target: Fuc(a1-2)Gal(b1-4)[Fuc(a1-3)]GlcNAc
# Outline: as §1
# [10] = target: Fuc(a1-2)Gal(b1-4)[Fuc(a1-3)]GlcNAc(b1-3)Gal(b1-4)[Fuc(a1-3)]GlcNAc
# Outline: as §1
# [11] = target: Fuc(a1-2)Gal(b1-4)[Fuc(a1-3)]GlcNAc(b1-3)Gal(b1-4)[Fuc(a1-3)]GlcNAc(b1-3)Gal(b1-4)[Fuc(a1-3)]GlcNAc
# Outline: as §1
# Fuc(a1-2)Gal6S(b1-4)Glc = target: Fuc(a1-2)Gal6S(b1-4)Glc
# Outline: as §1
# [12] = target: Fuc(a1-2)Gal6S(b1-4)Glc6S
# Outline: as §1
# [13] = target: Fuc(a1-2)Gal6S(b1-4)GlcNAc
# Outline: as §1
# Fuc(a1-2)[Gal(a1-3)]Gal = target: Fuc(a1-2)[Gal(a1-3)]Gal
# Outline: as §1
# [14] = target: Fuc(a1-2)[Gal(a1-3)]Gal(b1-3)GlcNAc
# Outline: as §1
# [15] = target: Fuc(a1-2)[Gal(a1-3)]Gal(b1-4)Glc
# Outline: as §1
# [16] = target: Fuc(a1-2)[Gal(a1-3)]Gal(b1-4)GlcNAc
# Outline: as §1
# [17] = target: Fuc(a1-2)[Gal(a1-3)]Gal(b1-4)[Fuc(a1-3)]GlcNAc
# Outline: as §1
# [18] = target: Fuc(a1-2)[Gal(a1-4)]Gal(b1-4)GlcNAc
# Outline: as §1
# [19] = target: Fuc(a1-2)[GalNAc(a1-3)]Gal
# Outline: as §1
# [20] = target: Fuc(a1-2)[GalNAc(a1-3)]Gal(b1-3)GlcNAc
# Outline: as §1
# [21] = target: Fuc(a1-2)[GalNAc(a1-3)]Gal(b1-4)Glc
# Outline: as §1
# [22] = target: Fuc(a1-2)[GalNAc(a1-3)]Gal(b1-4)GlcNAc
# Outline: as §1
binder,measurement,setting,value
B1,glycan array binding signal (z-score),Fuc(a1-2)Gal,2.03
same,glycan array binding signal (z-score),Fuc(a1-2)Gal(b1-3)GalNAc,-0.225
same,glycan array binding signal (z-score),[1],-0.52
same,glycan array binding signal (z-score),[2],-0.437
same,glycan array binding signal (z-score),[3],-0.399
same,glycan array binding signal (z-score),Fuc(a1-2)Gal(b1-3)GlcNAc,-0.59
same,glycan array binding signal (z-score),[4],-0.56
same,glycan array binding signal (z-score),[5],1.17
same,glycan array binding signal (z-score),Fuc(a1-2)Gal(b1-4)Glc,-0.171
same,glycan array binding signal (z-score),Fuc(a1-2)Gal(b1-4)Glc6S,-0.514
same,glycan array binding signal (z-score),Fuc(a1-2)Gal(b1-4)GlcNAc,-0.411
same,glycan array binding signal (z-score),[6],1.5
same,glycan array binding signal (z-score),[7],2.05
same,glycan array binding signal (z-score),[8],-0.304
same,glycan array binding signal (z-score),[9],-0.487
same,glycan array binding signal (z-score),[10],-0.374
same,glycan array binding signal (z-score),[11],0.787
same,glycan array binding signal (z-score),Fuc(a1-2)Gal6S(b1-4)Glc,-0.436
same,glycan array binding signal (z-score),[12],-0.304
same,glycan array binding signal (z-score),[13],-0.456
same,glycan array binding signal (z-score),Fuc(a1-2)[Gal(a1-3)]Gal,-0.535
same,glycan array binding signal (z-score),[14],-0.546
same,glycan array binding signal (z-score),[15],-0.517
same,glycan array binding signal (z-score),[16],-0.508
same,glycan array binding signal (z-score),[17],-0.548
same,glycan array binding signal (z-score),[18],1.34
same,glycan array binding signal (z-score),[19],-0.519
same,glycan array binding signal (z-score),[20],-0.559
same,glycan array binding signal (z-score),[21],-0.55
same,glycan array binding signal (z-score),[22],-0.484
